This is an account of results in PubChem BioAssay AID493208 (National Center for Advancing Translational Sciences (NCATS), 2011).

The campaign covered roughly 44,000 compounds. About 340 (0.77%) were called active. Not shown: some 5% with an inconclusive outcome. Calls come from the whole dose curve; as a rule, active = well fitted inhibition curve with a large enough effect; inconclusive = small, poorly fitted or top-dose-only effect; inactive = flat fitted curve, though single readings scatter. Some of the results follow.

The assay can be described thus: Acumen qHTS Assay for Inhibitors of the mTORC1 Signaling Pathway in MEF (Tsc2-/-, p53-/-) Cells: Sytravon.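 Note: plate controls were DMSO for no effect and rapamycin for full effect; nearly all actives have a fitted effect of over 50% in size.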 Particulars: phospho-rpS6 immunofluorescence/PI, 24 h; series mostly up to 38.3 µM; activity change, negative = inhibition: at the top concentration. Summed up:
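Tsc2-/-, p53-/- MEFs (empty-vector stable line) in DMEM + 10% FBS were treated with compounds 24 h at 37 degree Celsius, fixed, and immunostained for phospho-rpS6 (Alexa-488) with propidium iodide counterstain. Laser-scanning cytometry gave % positive cells, normalized against 7.5 nM rapamycin and DMSO.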
In general terms: qHTS replaces the single test concentration by a dilution series.
As to `CCOc1ccc(NC(=O)Cn2cc(C(=O)c3ccccc3)c3ccccc32)cc1`, the “activity change, negative = inhibition” value was inactive: 6.34%. The result for `Cc1ccc2c(c1)C(Cc1nc3ccccc3c(=O)n1-c1ccc(Br)cc1)C(=O)N2` (configuration not stated) reads inactive: -14.1%; that for `O=C(COc1ccccc1F)N1CCN(Cc2cc(=O)n3nc(-c4ccccc4Cl)sc3n2)CC1`, inactive: -5.06%; that for `COc1ccc(NC(=O)c2sc3nc4c(cc3c2N)N2CCC4CC2)cc1OC`, inactive: -28.5%. Consider `O=C(COc1cc(Cl)ccc1Cl)Nc1ccc(Cl)cc1C(=O)c1ccccc1`, for which the “activity change, negative = inhibition” value was inactive: 4.72%. The result for `Cc1cccc(OCC(=O)N2CCN(CCc3ccccn3)CC2)c1` reads inactive: -25.8%; that for `O=C(Nc1ccc(F)c([N+](=O)[O-])c1)c1cccn(Cc2ccccc2)c1=O`, inactive: -3.39%.

In the case of `Cc1ccc(-n2c(=O)[nH]c3ccc(Br)cc3c2=O)cc1`, the “activity change, negative = inhibition” value is inactive: -5.27%.

For `C=Cc1ccc(Cn2c(C)c(CNCCc3cc(OC)ccc3OC)c(C(=O)O)c2C)cc1`, the “activity change, negative = inhibition” value is inactive: -4.52%. With `CCCCc1nn2c(=O)cc(COC(=O)Cc3ccccc3)nc2s1` the figure was inactive: -1.86%; with `Cc1ccccc1Cn1cccc(C(=O)Nc2nc3ccccc3s2)c1=O`, inactive: -0.181%. As for `CC(C)(C)c1ccc(C(=O)Nc2ccc(Cl)cc2C(=O)c2ccccc2)cc1`, the “activity change, negative = inhibition” value was inactive: 6.67%. The result for `O=C(Nc1cc(C(F)(F)F)cc(C(F)(F)F)c1)c1cccn(Cc2ccccc2Cl)c1=O` reads inactive: -12.3%; that for `O=C1CN=C(c2ccccc2Cl)c2cc(Cl)ccc2N1Cc1cccc(Cl)c1`, inactive: -6.16%; that for `CC(C)c1nn2c(=O)cc(COC(=O)Cc3ccccc3)nc2s1`, inactive: 3.83%. With `Cc1ccc(NC(=O)c2cccn(Cc3ccccc3C)c2=O)c(C)c1`, the “activity change, negative = inhibition” value is inactive: 1.76%.

With `Cc1ccc(CN2C(=O)c3ccccc3Sc3ccc(C(=O)N4CCC5(CC4)OCCO5)cc32)cc1`, the “activity change, negative = inhibition” value was inactive: 10.4%. For `Cc1ccc(NC(=O)CN2C(=O)CN=C(c3ccccc3)c3ccccc32)cc1`, the “activity change, negative = inhibition” value was inactive: -6.57%.

As for `CCCCCc1nc2ccccc2c(=O)n1-c1ccc(C)cc1`, the “activity change, negative = inhibition” value was inactive: 4.71%. In the case of `Cc1ccccc1-n1nc(C)c2c1NC(=O)CSC2c1ccc(N(C)C)cc1` (configuration not stated), the “activity change, negative = inhibition” value was inactive: -10.5%. As for `COc1ccc(-n2c(/C=C\c3ccccc3F)nc3ccccc3c2=O)cc1OC`, the “activity change, negative = inhibition” value is inactive: 5.43%.

For `COc1cccc(-n2c(/C=C/c3ccccc3O)nc3ccccc3c2=O)c1`, the “activity change, negative = inhibition” value was inactive: -10.9%.
